Substitutions are numbered along the chain they refer to; changes in the protein carry UniProt numbers. This is one part of the list.
T1: RBFOX1 RRM (Homo sapiens, UniProt Q9NWB1 109-208)
T1 sequence: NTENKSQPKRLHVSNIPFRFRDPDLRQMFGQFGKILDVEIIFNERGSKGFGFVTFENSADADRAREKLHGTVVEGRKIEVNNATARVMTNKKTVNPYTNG

B1: AUUUGGU (DNA:RNA)
RNA: GGGAGACCGGAAUUCAGAUUGUCCAUUUGGUUUAAAUCCCGUCGUAGCCACCA
DNA 1: CAATCTGAATTCCGGTCTCCC
DNA 2: TGGTGGCTACGACGGGATT
B2: CUUGGAA (DNA:RNA)
RNA: B1 RNA with A25C, U28G, G30A, U31A
DNA 1: CAATCTGAATTCCGGTCTCCC
DNA 2: TGGTGGCTACGACGGGATT
B3: CUUCGUU (DNA:RNA)
RNA: B1 RNA with A25C, U28C, G30U
DNA 1: CAATCTGAATTCCGGTCTCCC
DNA 2: TGGTGGCTACGACGGGATT
B4: AGAGCCU (DNA:RNA)
RNA: B1 RNA with U26G, U27A, U28G, G29C, G30C
DNA 1: CAATCTGAATTCCGGTCTCCC
DNA 2: TGGTGGCTACGACGGGATT
B5: AAUUUAA (DNA:RNA)
RNA: B1 RNA with U26A, G29U, G30A, U31A
DNA 1: CAATCTGAATTCCGGTCTCCC
DNA 2: TGGTGGCTACGACGGGATT
B6: AUUUGAC (DNA:RNA)
RNA: B1 RNA with G30A, U31C
DNA 1: CAATCTGAATTCCGGTCTCCC
DNA 2: TGGTGGCTACGACGGGATT
B7: CCCCAUU (DNA:RNA)
RNA: B1 RNA with A25C, U26C, U27C, U28C, G29A, G30U
DNA 1: CAATCTGAATTCCGGTCTCCC
DNA 2: TGGTGGCTACGACGGGATT
B8: GCGCAGG (DNA:RNA)
RNA: B1 RNA with A25G, U26C, U27G, U28C, G29A, U31G
DNA 1: CAATCTGAATTCCGGTCTCCC
DNA 2: TGGTGGCTACGACGGGATT
B9: CUUUGUU (DNA:RNA)
RNA: B1 RNA with A25C, G30U
DNA 1: CAATCTGAATTCCGGTCTCCC
DNA 2: TGGTGGCTACGACGGGATT
B10: ACAACGG (DNA:RNA)
RNA: B1 RNA with U26C, U27A, U28A, G29C, U31G
DNA 1: CAATCTGAATTCCGGTCTCCC
DNA 2: TGGTGGCTACGACGGGATT
B11: UUGACCU (DNA:RNA)
RNA: B1 RNA with A25U, U27G, U28A, G29C, G30C
DNA 1: CAATCTGAATTCCGGTCTCCC
DNA 2: TGGTGGCTACGACGGGATT
B12: GCAACUA (DNA:RNA)
RNA: GGGAGACCGGAAUUCAGAUUGUCCGCAACUAUUAAAUCCCGUCGUAGCCACCA
DNA 1: CAATCTGAATTCCGGTCTCCC
DNA 2: TGGTGGCTACGACGGGATT
B13: CUAUAUU (DNA:RNA)
RNA: B1 RNA with A25C, U27A, G29A, G30U
DNA 1: CAATCTGAATTCCGGTCTCCC
DNA 2: TGGTGGCTACGACGGGATT
B14: UGCUCCA (DNA:RNA)
RNA: B12 RNA with G25U, C26G, A27C, A28U, U30C
DNA 1: CAATCTGAATTCCGGTCTCCC
DNA 2: TGGTGGCTACGACGGGATT
B15: GUGGGAG (DNA:RNA)
RNA: B1 RNA with A25G, U27G, U28G, G30A, U31G
DNA 1: CAATCTGAATTCCGGTCTCCC
DNA 2: TGGTGGCTACGACGGGATT
B16: AAUGGAG (DNA:RNA)
RNA: B1 RNA with U26A, U28G, G30A, U31G
DNA 1: CAATCTGAATTCCGGTCTCCC
DNA 2: TGGTGGCTACGACGGGATT
B17: ACUGCGC (DNA:RNA)
RNA: B1 RNA with U26C, U28G, G29C, U31C
DNA 1: CAATCTGAATTCCGGTCTCCC
DNA 2: TGGTGGCTACGACGGGATT
B18: GUCACGC (DNA:RNA)
RNA: B12 RNA with C26U, A27C, U30G, A31C
DNA 1: CAATCTGAATTCCGGTCTCCC
DNA 2: TGGTGGCTACGACGGGATT
B19: GACGUAU (DNA:RNA)
RNA: B1 RNA with A25G, U26A, U27C, U28G, G29U, G30A
DNA 1: CAATCTGAATTCCGGTCTCCC
DNA 2: TGGTGGCTACGACGGGATT
B20: AUCGCUU (DNA:RNA)
RNA: B1 RNA with U27C, U28G, G29C, G30U
DNA 1: CAATCTGAATTCCGGTCTCCC
DNA 2: TGGTGGCTACGACGGGATT
B21: UUCUAAG (DNA:RNA)
RNA: B1 RNA with A25U, U27C, G29A, G30A, U31G
DNA 1: CAATCTGAATTCCGGTCTCCC
DNA 2: TGGTGGCTACGACGGGATT
B22: ACGUGUU (DNA:RNA)
RNA: B1 RNA with U26C, U27G, G30U
DNA 1: CAATCTGAATTCCGGTCTCCC
DNA 2: TGGTGGCTACGACGGGATT
B23: UGCUAGU (DNA:RNA)
RNA: B1 RNA with A25U, U26G, U27C, G29A
DNA 1: CAATCTGAATTCCGGTCTCCC
DNA 2: TGGTGGCTACGACGGGATT
B24: UUCUACA (DNA:RNA)
RNA: B1 RNA with A25U, U27C, G29A, G30C, U31A
DNA 1: CAATCTGAATTCCGGTCTCCC
DNA 2: TGGTGGCTACGACGGGATT
B25: UGGGCGU (DNA:RNA)
RNA: B1 RNA with A25U, U26G, U27G, U28G, G29C
DNA 1: CAATCTGAATTCCGGTCTCCC
DNA 2: TGGTGGCTACGACGGGATT
B26: AAGAGAG (DNA:RNA)
RNA: B1 RNA with U26A, U27G, U28A, G30A, U31G
DNA 1: CAATCTGAATTCCGGTCTCCC
DNA 2: TGGTGGCTACGACGGGATT
B27: UACCGUA (DNA:RNA)
RNA: B12 RNA with G25U, C26A, A27C, A28C, C29G
DNA 1: CAATCTGAATTCCGGTCTCCC
DNA 2: TGGTGGCTACGACGGGATT
B28: UUCGAGG (DNA:RNA)
RNA: B1 RNA with A25U, U27C, U28G, G29A, U31G
DNA 1: CAATCTGAATTCCGGTCTCCC
DNA 2: TGGTGGCTACGACGGGATT
B29: CCUAAUC (DNA:RNA)
RNA: B12 RNA with G25C, A27U, C29A, A31C
DNA 1: CAATCTGAATTCCGGTCTCCC
DNA 2: TGGTGGCTACGACGGGATT
B30: UGCGUCC (DNA:RNA)
RNA: GGGAGACCGGAAUUCAGAUUGUCCUGCGUCCUUAAAUCCCGUCGUAGCCACCA
DNA 1: CAATCTGAATTCCGGTCTCCC
DNA 2: TGGTGGCTACGACGGGATT
B31: CCAUGUA (DNA:RNA)
RNA: B12 RNA with G25C, A28U, C29G
DNA 1: CAATCTGAATTCCGGTCTCCC
DNA 2: TGGTGGCTACGACGGGATT

The binders below were run against T1, RBFOX1 RRM (assay: EMSA; HiTS-Eq, 1 nM pool, 10 min; buffer printed only for the single-RNA assays: 10 mM Tris pH 7.5, 150 mM NaCl, 3.4 mM EDTA, 0.001% NP-40, 30 C). Settings: tags: His6 N-terminal (pET28a); label: 5' 32P.
Outline: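 Purified RbFox RRM (wild type or mutant) was equilibrated for 10 min in 50 µL with 1 nM of a 5′-radiolabelled pool of RNA with 7 randomized nucleotides, its flanks annealed to DNA oligonucleotides, across increasing protein concentrations. Free RNA was separated by 8% native PAGE, excised, reverse-transcribed, PCR-barcoded and sequenced on an Illumina HiSeq 2500. Relative association constants came from read-count changes of each variant against the control reaction, normalised to the cognate motif.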

Binder	binding signal
B1	0.0136 KA relative to UGCAUGU
B2	0.0119 KA relative to UGCAUGU
B3	0.0135 KA relative to UGCAUGU
B4	0.00804 KA relative to UGCAUGU
B5	0.00442 KA relative to UGCAUGU
B6	0.0117 KA relative to UGCAUGU
B7	0.00211 KA relative to UGCAUGU
B8	0.0122 KA relative to UGCAUGU
B9	0.0183 KA relative to UGCAUGU
B10	0.00707 KA relative to UGCAUGU
B11	0.0127 KA relative to UGCAUGU
B12	0.0037 KA relative to UGCAUGU
B13	0.00384 KA relative to UGCAUGU
B14	0.00955 KA relative to UGCAUGU
B15	0.0115 KA relative to UGCAUGU
B16	0.00389 KA relative to UGCAUGU

Binder	binding signal
B17	0.00979 KA relative to UGCAUGU
B18	0.0139 KA relative to UGCAUGU
B19	0.00701 KA relative to UGCAUGU
B20	0.00304 KA relative to UGCAUGU
B21	0.00998 KA relative to UGCAUGU
B22	0.0131 KA relative to UGCAUGU
B23	0.0309 KA relative to UGCAUGU
B24	0.00365 KA relative to UGCAUGU
B25	0.0388 KA relative to UGCAUGU
B26	0.0103 KA relative to UGCAUGU
B27	0.00462 KA relative to UGCAUGU
B28	0.00939 KA relative to UGCAUGU
B29	0.00151 KA relative to UGCAUGU
B30	0.0132 KA relative to UGCAUGU
B31	0.00341 KA relative to UGCAUGU
